The source of these data is patent US10669314B2, “Polypeptide” (Affibody AB, priority 2014, dated 2020).

The target in the assay is hIL-6/hIL-6Rα interaction with hgp130 (Homo sapiens, UniProt P05231). The assay can be described thus: Competition ELISA: blocking of binding of the hIL-6/hIL-6Rα complex to hgp130. The settings on record: Example 7. Here is the method: In this experiment, half area 96-well ELISA plates were coated with Fc-fused hgp130 (hgp130-Fc) at a concentration of 4 μg/ml. Plates were incubated overnight at 4° C. and then washed twice in tap water. Next, the plates were blocked for 1 h in PBSC. Plates were incubated for 1.5 h at RT and then washed 4 times with 200 μl 0.05% Tween/PBS. In separate plates, serial dilutions (concentration range 500-0.5 nM) of the 13 His6-tagged Z variant polypeptides were titrated with fixed concentration of hIL-6/hIL-6Rα (0.5 nM and 5 nM, respectively).
Sequence of hIL-6/hIL-6Rα interaction with hgp130 (P05231 29-212): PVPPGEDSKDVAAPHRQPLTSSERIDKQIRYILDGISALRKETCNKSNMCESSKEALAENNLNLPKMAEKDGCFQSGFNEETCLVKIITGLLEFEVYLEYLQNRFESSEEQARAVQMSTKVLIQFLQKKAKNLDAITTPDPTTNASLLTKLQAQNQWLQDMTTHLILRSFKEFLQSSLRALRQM
Sequence of hIL-6/hIL-6Rα interaction with hgp130 (P08887 20-358 partner limits assumed): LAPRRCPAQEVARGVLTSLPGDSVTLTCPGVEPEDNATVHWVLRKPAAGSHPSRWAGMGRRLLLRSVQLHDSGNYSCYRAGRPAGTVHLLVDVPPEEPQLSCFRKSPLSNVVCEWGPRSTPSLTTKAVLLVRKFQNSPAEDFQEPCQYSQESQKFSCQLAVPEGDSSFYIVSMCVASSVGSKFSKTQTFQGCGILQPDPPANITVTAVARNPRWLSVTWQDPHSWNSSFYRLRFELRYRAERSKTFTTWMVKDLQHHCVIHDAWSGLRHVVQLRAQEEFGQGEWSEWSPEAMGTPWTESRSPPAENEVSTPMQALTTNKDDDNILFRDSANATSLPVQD
Plates were incubated for 1.5 h and then washed 4 times. A biotinylated anti-IL-6Rα antibody (R&D Systems) was added and the plates were incubated for another 1.5 h followed by washing. A 1:8000 dilution of streptavidin-HRP (Thermo Scientific) was added and the plates were incubated for 1 h. Next, plates were washed four times and TMB substrate (Thermo Scientific) was added for 15 min before the reaction was stopped with 2 M H2SO4. The absorbance was measured at 450 nm using a microplate reader (Victor^3, Perkin Elmer).
Background: ELISA stands for enzyme-linked immunosorbent assay.

With “Z06814: primary IL-6 binding Z variant, SEQ ID NO:1512 (VDAKYAKEEQRAWREIHLLPNLTIEQMAAFIWKLLDDPSQSSELLSEAKKLNDSQAPK; Engineered IL6 binding polypeptide)”, the “blocking of the interaction between preformed hIL-6/hIL-6Rα complexes and hgp130” value is given as “Concentration dependent blocking”.
